Reference: the supplement of paper PMC4967469

Tests used:
Experiment in all cases: Viability of human cancer cell lines after 72 h of drug (GDSC screen)
[1] = compound: C=CC(=O)Nc1cc(NC(=O)c2ccc(C)c(NC(=O)c3ccno3)c2)cc(C(F)(F)F)c1 [QL-XI-92]; settings: top dose 10.24 µM; top dose inferred
Description: (§1)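 Human cancer cell lines in 384-well plates, medium with 10% serum, drug for 72 h over a 256-fold dose range (nine 2-fold or five 4-fold steps up to the top dose). Adherent lines were fixed and stained with the nucleic acid dye Syto60, suspension lines read with resazurin; signal relative to control wells, capped at 0 and 100%. One two-parameter sigmoid per drug and line, fitted in a mixed model over all curves with the slope shared within a line.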

[2] = compound: CCC1=C[C@@H]2CN(C1)Cc1c([nH]c3ccccc13)[C@@](C(=O)OC)(c1cc3c(cc1OC)N(C)[C@H]1[C@@](O)(C(=O)OC)[C@H](OC(C)=O)[C@]4(CC)C=CCN5CC[C@]31[C@@H]54)C2 [Vinorelbine]; settings: top dose 0.064 µM; top dose inferred
Description: as §1

[3] = compound: CNCc1ccc(-c2[nH]c3cc(F)cc4c3c2CCNC4=O)cc1 [AG-014699]; settings: top dose 5 µM; top dose inferred
Description: as §1

[4] = compound: COc1cc2nccc(Oc3ccc(NC(=O)C4(C(=O)Nc5ccc(F)cc5)CC4)cc3)c2cc1OC [XL-184]; settings: top dose 5.12 µM; top dose inferred
Description: as §1

[5] = compound: COc1cc2ncnc(Nc3cc(Br)c(O)c(Br)c3)c2cc1OC [WHI-P97]; settings: top dose 10.24 µM; top dose inferred
Description: as §1

[6] = compound: N=C(N)NC(=N)NCCc1ccccc1 [Phenformin]; settings: top dose 4000 µM; top dose inferred
Description: as §1

[7] = compound: O=c1cc(CN2CCOCC2)occ1OCCCCCSc1ccnc2cc(C(F)(F)F)ccc12 [EHT 1864]; settings: top dose 10 µM; top dose inferred
Description: as §1

[8] = compound: O=c1cc(N2CCOCC2)oc2c(-c3cccc4c3sc3ccccc34)cccc12 [NU-7441]; settings: top dose 2 µM; top dose inferred
Description: as §1

Cell Line | AUC [1] | IC50 [1] | AUC [2] | IC50 [2] | AUC [3] | IC50 [3] | AUC [4] | IC50 [4] | AUC [5] | IC50 [5] | AUC [6] | IC50 [6] | AUC [7] | IC50 [7] | AUC [8] | IC50 [8]
22RV1 (prostate, adherent) | 0.959 | > 10.2 µM | 0.632 | 10.1 nM | 0.927 | > 5 µM | 0.867 | > 5.12 µM | 0.979 | > 10.2 µM | 0.975 | > 4 mM | 0.934 | > 10 µM | 0.977 | > 2000 nM
786-0 (kidney, adherent) | 0.908 | > 10.2 µM | 0.489 | 3.75 nM | 0.979 | > 5 µM | 0.928 | > 5.12 µM | 0.937 | > 10.2 µM | 0.667 | 0.696 mM | 0.841 | 6.16 µM | 0.938 | > 2000 nM
A172 (glioma, adherent) | 0.916 | > 10.2 µM | 0.691 | 13.4 nM | 0.931 | > 5 µM | 0.915 | > 5.12 µM | 0.977 | > 10.2 µM | 0.583 | 0.417 mM | 0.912 | > 10 µM | 0.947 | > 2000 nM
A375 (melanoma, adherent) | 0.991 | > 10.2 µM | 0.86 | 39.1 nM | 0.948 | > 5 µM | – | – | 0.986 | > 10.2 µM | – | – | 0.98 | > 10 µM | 0.933 | > 2000 nM
A431 (skin, adherent) | 0.877 | 9.56 µM | 0.46 | 3.13 nM | 0.947 | > 5 µM | – | – | 0.864 | 8.31 µM | 0.533 | 0.307 mM | 0.98 | > 10 µM | 0.971 | > 2000 nM
A673 (rhabdomyosarcoma, adherent) | 0.986 | > 10.2 µM | 0.613 | 7.89 nM | 0.892 | 4.84 µM | 0.965 | > 5.12 µM | 0.985 | > 10.2 µM | 0.897 | > 4 mM | 0.962 | > 10 µM | 0.987 | > 2000 nM
BCPAP (thyroid, adherent) | 0.967 | > 10.2 µM | 0.439 | 2.76 nM | 0.959 | > 5 µM | 0.91 | > 5.12 µM | 0.988 | > 10.2 µM | 0.964 | > 4 mM | 0.961 | > 10 µM | 0.963 | > 2000 nM
BHY (head and neck, adherent) | 0.93 | > 10.2 µM | 0.654 | 10.7 nM | 0.979 | > 5 µM | 0.909 | > 5.12 µM | 0.839 | 7 µM | 0.582 | 0.418 mM | 0.957 | > 10 µM | 0.971 | > 2000 nM
BPH-1 (prostate, adherent) | 0.864 | > 10.2 µM | 0.438 | 2.66 nM | 0.887 | > 5 µM | 0.829 | 3.64 µM | 0.763 | 4.07 µM | 0.888 | > 4 mM | 0.894 | > 10 µM | 0.928 | > 2000 nM
BT-20 (breast, adherent) | 0.93 | > 10.2 µM | 0.696 | 16.4 nM | 0.96 | > 5 µM | 0.973 | > 5.12 µM | 0.961 | > 10.2 µM | 0.819 | 3.03 mM | 0.932 | > 10 µM | 0.98 | > 2000 nM
BxPC-3 (pancreas, adherent) | 0.983 | > 10.2 µM | 0.521 | 4.59 nM | 0.953 | > 5 µM | 0.892 | > 5.12 µM | 0.974 | > 10.2 µM | – | – | 0.973 | > 10 µM | 0.976 | > 2000 nM
CAL-54 (kidney, adherent) | 0.985 | > 10.2 µM | 0.917 | > 64 nM | 0.91 | > 5 µM | 0.849 | 4.74 µM | 0.972 | > 10.2 µM | 0.855 | 3.94 mM | 0.966 | > 10 µM | 0.935 | > 2000 nM
CAL-85-1 (breast, adherent) | 0.93 | > 10.2 µM | 0.451 | 2.82 nM | 0.979 | > 5 µM | 0.9 | > 5.12 µM | 0.824 | 8.53 µM | 0.909 | > 4 mM | 0.967 | > 10 µM | 0.981 | > 2000 nM
COLO-205 (large intestine, suspension) | 0.98 | > 10.2 µM | 0.368 | 1.74 nM | 0.975 | > 5 µM | – | – | 0.985 | > 10.2 µM | 0.789 | 1.74 mM | 0.899 | > 10 µM | 0.985 | > 2000 nM
Calu-3 (lung adenocarcinoma, adherent) | 0.983 | > 10.2 µM | – | – | 0.925 | > 5 µM | 0.909 | > 5.12 µM | 0.975 | > 10.2 µM | 0.923 | > 4 mM | 0.96 | > 10 µM | 0.973 | > 2000 nM
ChaGo-K-1 (non-small cell lung carcinoma, adherent) | 0.952 | > 10.2 µM | 0.491 | 3.76 nM | 0.966 | > 5 µM | 0.98 | > 5.12 µM | 0.98 | > 10.2 µM | 0.83 | 3.09 mM | 0.977 | > 10 µM | 0.975 | > 2000 nM
HT-29 (large intestine, adherent) | 0.98 | > 10.2 µM | 0.435 | 2.66 nM | 0.939 | > 5 µM | – | – | 0.987 | > 10.2 µM | 0.834 | 2.6 mM | 0.988 | > 10 µM | 0.962 | > 2000 nM

A lower IC50 marks a more sensitive line; a fit beyond the top or the lowest dose is shown as a bound at that dose. The AUC spans the tested range (256-fold, ending at the top dose) of the same fit; it is 1 without any effect and falls as sensitivity rises. Where the top dose is marked as inferred, it was calculated from the reported fits.
